# Data reported in PubChem BioAssay AID686978 (National Center for Advancing Translational Sciences (NCATS), 2013).
# Where “and” joins values, the source holds several entries; their conditions need not be identical. Identical values can stand only once. In all, about 420,000 compounds went through this assay and about 64,000 (15%) were called active. The inconclusive results got no clear call from the source; some entries with a clear call stand among them for comparison. The call rests on the fitted dose curve; in most records, active means well fitted inhibition curve with a large enough effect; inconclusive means small, poorly fitted or top-dose-only effect; inactive means flat fitted curve, though single readings scatter. Where the call is inconclusive, the potency comes from a doubtful curve fit.
# Test: qHTS for Inhibitors of human tyrosyl-DNA phosphodiesterase 1 (TDP1): qHTS in cells in absence of CPT; further: nearly all actives have a fitted effect of over 55% in size
# Details: DT40 Tdp1-/- hTDP1 cells, no CPT, ATP luminescence, 48 h; activity change, negative = growth inhibition: at 46.2 µM (top of the series) unless noted
# How it was run: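 Growth kinetics read by CellTiter-Glo luminescence after ≥48 hr at 37 °C. Cells: DT40 Tdp1-/- stably carrying human TDP1, 400 per well, compound exposure in the absence of CPT (DMSO vehicle).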
# On the % scale 0 is the no-effect control and ±100 the full control effect; potency means the concentration at half of the fitted maximal effect; tags describe the fitted curve by direction and shape.
Structure (SMILES),Potency,"activity change, negative = growth inhibition"
COc1ccc(NC(=O)c2cc(C3CC3)nc3c2c(C)nn3-c2ccc(C)cc2)cc1OC,"inconclusive: 29.1 µM [inhibitor, single point]",
COc1ccccc1CNC(=O)c1oc2c(c1C)-c1nn(Cc3ccc(Cl)cc3)cc1CC2,active: 20.6 µM,
COc1ccc2c(=O)c3c(=O)n(CCc4ccccc4)c(C(C)C)nc3oc2c1,active: 14.6 µM,
Cc1cc(Cl)ccc1OCCCC(=O)Nc1cccc(-n2cnnn2)c1,"inconclusive: 29.1 µM [inhibitor, single point]",
CCOC(=O)C1=C(COC(=O)CNS(=O)(=O)c2c(F)cc(F)cc2Br)NC(=O)NC1C (configuration not stated),inactive,
O=C(NC(c1ccc(Cl)cc1)c1cnccn1)C1CCN(Cc2ccccc2)CC1 (configuration not stated),"inconclusive: 29.1 µM [inhibitor, single point]",
COCCNc1nnc(SCC(=O)c2cc(C)n(C3CC3)c2C)s1,inactive,
COc1ccc(NC(=O)c2sc3nc(-c4cc5cccc(OC)c5oc4=O)[nH]c(=O)c3c2C)cc1,inactive,
O=C(c1ccc2nc(Cc3cccc(Cl)c3)oc2c1)N1CCC[C@H]1CO,inactive,
CC(C)CN(C(=O)COC(=O)CNC(=O)c1ccccc1F)c1c(N)n(Cc2ccccc2)c(=O)[nH]c1=O,inactive,
Cc1ccccc1N=C1NC(=O)/C(=C/c2cccnc2)S1,"inconclusive: 20.6 µM [inhibitor, single point]",
COc1ccccc1CN(Cc1nc2ccccc2c(=O)[nH]1)C(=O)Nc1cccc(C)c1,active: 3.66 µM,
Cc1cccc(/C=C2\Sc3ccc(C(=O)N4CCOCC4)cc3N(C)C2=O)c1,"inconclusive: 25.9 µM [inhibitor, single point]",
Cc1c(NS(C)(=O)=O)cccc1-c1nc2ccccc2s1,"inconclusive: 16.4 µM [inhibitor, single point]",
COc1cccc(-c2cnc(C(O)c3cc(F)cc(Cl)c3)[nH]2)c1 (configuration not stated),"inconclusive: 25.9 µM [inhibitor, single point]",
Cc1ccccc1N1CCN(Cc2c(C#N)c3ccccc3n2C)CC1,"inconclusive: 23.1 µM [inhibitor, single point]",
CCC1CCCCN1C(=S)NC(=O)c1ccco1 (configuration not stated),inactive,
Clc1ccc(-c2nnc(-c3ccccc3)nc2N2CCSCC2)cc1,active: 14.6 µM,
Cc1cc(C)n2nc3nc(N4CCCC4)nc(-c4ccccc4)c3c2n1,"inconclusive: 16.4 µM [inhibitor, partial curve]",
Cc1ccc(C)c(CN2C(=O)c3ccccc3S(=O)c3ccc(C(=O)NCCc4ccc(Cl)cc4)cc32)c1 (configuration not stated),active: 7.31 µM,
Cc1c(C(=O)Nc2ccncc2)oc2ccccc12,active: 20.6 µM,
C[C@H](O)[C@@H]1C(=O)N2CCc3c([nH]c4ccccc34)[C@@H]2C[C@@H]1N(C)C(=O)Nc1cccc2ccccc12,"inconclusive: 23.1 µM [inhibitor, single point]",
COc1cc(=O)n2c(c1C(=O)NCc1ccc3c(c1)OCO3)CCN(C(=O)c1cccc(F)c1)CC2,inactive,
O=C(COC(=O)c1cccnc1SCC(=O)NCc1ccccc1)NCc1ccccc1,"inconclusive: 25.9 µM [inhibitor, single point]",
CCCNc1nc(C)cc(-c2cc(C(=O)Nc3ccccc3)on2)n1,inactive,
CCN1C(=O)S/C(=C/c2c(OCc3ccc(C(=O)O)cc3)ccc3ccccc23)C1=O,"inconclusive: 11.6 µM [inhibitor, partial curve]",

Structure (SMILES),Potency,"activity change, negative = growth inhibition"
Cc1c(C(=O)Nc2ccccc2)csc1-c1ccccc1,"inconclusive: 29.1 µM [inhibitor, single point]",
COc1cnc(-c2ccccn2)nc1Sc1c(Cl)cccc1Cl,active: 0.92 µM,
COc1ccc(NC(=O)CSc2cc(C(=O)c3nccn3C)c3ccccc3n2)cc1,"inconclusive: 29.1 µM [inhibitor, single point]",
Cc1ccccc1C(=O)Oc1ccccc1C(=O)N1CCOCC1,inactive,
CCC(C)NC(=O)COC(=O)c1ccccc1OCC(=O)Nc1ccc(Br)cc1 (configuration not stated),"inactive and inconclusive: 14.6 µM [inhibitor, partial curve]",
CN(CC(=O)NCc1cccs1)S(=O)(=O)c1cccc2nsnc12,inactive,
COc1cccc(CNC(=O)NCc2noc3ccc(C)cc23)c1,"inconclusive: 23.1 µM [inhibitor, partial curve]",
COc1cccc(NC(=O)C(C)(C)C)c1,inactive,
COc1ccc(NC(=O)COc2cccc3c2CCN(Cc2cccnc2)C3=O)c(OC)c1,active: 10.3 µM,
COC(=O)C(NC(C)=O)(Nc1nc2c(C)cc(C)cc2s1)C(F)(F)F (configuration not stated),active: 15.8 µM,
CCOc1ccc(N(CC)S(=O)(=O)N2CCCC(C(=O)NCc3ccc(SC)cc3)C2)cc1 (configuration not stated),active: 20.6 µM,
Cc1cccc(-c2nc(C#N)c(NCC3CCCO3)o2)c1 (configuration not stated),"inconclusive: 16.4 µM [inhibitor, partial curve, poor fit]",
CC(C)(C)c1nn(-c2ccccc2)c2[nH]c(=O)c(CNCc3ccc4c(c3)OCO4)cc12,"inconclusive: 23.1 µM [inhibitor, single point]",
COC(=O)c1ccc(C(=O)OC)c(NC(=O)CCC(=O)O)c1,inactive,
CC(=O)c1cccc(NC(=O)CC2Oc3ccc(C)cc3NC2=O)c1 (configuration not stated),"inconclusive: 23.1 µM [inhibitor, single point]",
O=C(CN1C(=O)C2CC=CCC2C1=O)N1CCN(c2ccc([N+](=O)[O-])cc2)CC1 (configuration not stated),"inconclusive: 16.4 µM [inhibitor, partial curve]",
COc1ccccc1C(CNC(=O)C(CCSC)NC(=O)c1ccccc1Cl)N1CCCC1 (configuration not stated),inactive,
O=C(NCC1COc2ccccc2O1)c1cccc(S(=O)(=O)NCc2ccccc2)c1 (configuration not stated),"inconclusive: 29.1 µM [inhibitor, single point]",
O=C(c1ccc(COc2c(F)c(F)c(F)c(F)c2F)o1)N1CCOCC1,"inconclusive: 29.1 µM [inhibitor, single point]",
O=C1CCc2cc(NS(=O)(=O)c3ccc([N+](=O)[O-])cc3)cc3c2N1CC3,inactive,
CC(C)CC(=O)NC(=S)N1CCCCCC1,inactive,
Cc1occc1-c1nnc(SCC(=O)Nc2ccccc2)n1Cc1ccccc1,,inconclusive: -31.8% [inhibitor]
Cc1ccc(SCC(=O)OCC(=O)N(C)CC(=O)Nc2ccc(F)cc2)cc1C,inactive,
CC1CCN(CCCNC(=O)c2ccc(N3CCCC3=O)cc2)CC1,inactive,
O=C(Nc1ccc(NC(=O)c2cccs2)cc1)c1ccc2c(c1)OCCO2,inactive,
NC(COCc1ccccc1)c1csc(Nc2ccc(C(F)(F)F)cn2)n1 (configuration not stated),"inconclusive: 20.6 µM [inhibitor, single point]",

Structure (SMILES),Potency,"activity change, negative = growth inhibition"
Cc1ccc(CNC(=O)c2ccc(F)c(S(=O)(=O)N3CCOCC3)c2)cc1,inactive,
COc1ccc(N2CCN(C(=O)CCS(=O)(=O)c3cc(Br)cc4c3N(C(=O)C3CC3)CC4)CC2)cc1,inactive,
CCOC(=O)N1CCC(=NNc2nc3ccccc3s2)CC1,inactive,
Cc1cccc(CNc2nc(-c3ccoc3)nc3ccccc23)c1,active: 20.6 µM,
COc1ccc(NC(=O)Nc2nnc(N3CCCCCC3)s2)c(OC)c1,active: 18.4 µM,
Brc1ccc(C2NCCS2)cc1 (configuration not stated),inactive,
Cn1nnnc1Sc1c(Cl)cccc1[N+](=O)[O-],inactive,
O=C(NCc1ccncc1)/C(=C/c1cccc([N+](=O)[O-])c1)NC(=O)c1ccccc1,inactive,
COc1ccc(-c2ccc3c(N)c(C(=O)Nc4cccc(C)c4)sc3n2)cc1,"inconclusive: 11.6 µM [inhibitor, partial curve]",
Cc1nc2sc(C(=O)Nc3ccccc3)c(N)c2c(C)c1[N+](=O)[O-],"inconclusive: 20.6 µM [inhibitor, partial curve, poor fit]",
O=C(NCCN1CCN(c2ccccc2)CC1)c1cccc(Cl)c1,"inconclusive: 23.1 µM [inhibitor, single point]",
CN(C(=O)/C=C/c1ccccc1)C1CCS(=O)(=O)C1 (configuration not stated),inactive,
O=S(=O)(c1cccc(-c2cn3cc(Cl)ccc3n2)c1)N1CCOCC1,inactive,
COc1cccc(CNC(=O)Cn2c(=O)oc3cc(S(=O)(=O)N4CCCCC4)ccc32)c1,"inconclusive: 23.1 µM [inhibitor, single point]",
COc1ccc(C2(O)CC3CCC(C2)N3c2cc(C)nc(-c3ccccc3)n2)cc1 (configuration not stated),"inconclusive: 18.4 µM [inhibitor, single point]",
COc1ccccc1Nc1nc(N)nc(CSC(=S)N2CCN(c3ccccc3)CC2)n1,"inconclusive: 29.1 µM [inhibitor, single point]",
CCC(C)NC(=O)c1cc(OC)c(OC)c(OC)c1 (configuration not stated),inactive,
COc1ccc(NS(=O)(=O)c2cc(NC(=O)CNC(=O)c3ccc(C)s3)ccc2Cl)cc1,inactive,
O=C(NCc1ccc(F)cc1)OC1CC2CC1[C@H]1CCCCN1C2=O (some centres not stated),inactive,
CC(C)(C)SCCNS(=O)(=O)c1ccc(C#N)cc1,"inconclusive: 20.6 µM [inhibitor, single point]",
CC1=NN=C(c2ccccc2)C(c2c[nH]c3ccccc23)N1O (configuration not stated),inactive,
COc1ccccc1C(=O)NC(=O)Nc1ccc(-n2nc(C(F)(F)F)cc2C(F)(F)F)cc1,active: 14.6 µM,
O=C(O)CC(Cc1ccccc1)C(=O)NCC12CC3CC(CC(C3)C1)C2 (configuration not stated),inactive,
O=C(NCC(c1ccccc1)N1CCCC1)C1CCN(C(=O)Nc2ccccc2)CC1 (configuration not stated),inactive,
Cc1ccsc1/C=N/NC(=O)c1nnn(-c2nonc2N)c1CSc1ccccc1,inactive,
